# The list shows a part of the results. The full chains were built here from the parent and the listed change. Inactive controls read about 0.05.
# B1: TEV protease; numbered along this chain (parent)
# chain: MGESLFKGPRDYNPISSSICHLTNESDGHTTSLYGIGFGPFIITNKHLFRRNNGTLVVQSLHGVFKVKDTTTLQQHLVDGRDMIIIRMPKDFPPFPQKLKFREPQREERICLVTTNFQTKSMSSMVSDTSCTFPSGDGIFWKHWIQTKDGQCGSPLVSTRDGFIVGIHSASNFTNTNNYFTSVPKNFMELLTNQEAQQWVSGWRLNADSVLWGGHKVFMVKPEEPFQPVKEATQL
# Variants of: B1
# Assay: raw area under fraction-flipped curve 0-4 h after induction (AUC4h, not background-subtracted), DNA-recorder readout of cleavage of the substrate (dimensionless); higher = more cleavage of the substrate by the protease variant
# Conditions: temperature: 34 °C; time window: 0-4 h after rhamnose induction
# Procedure: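 In vivo DNA recorder in E. coli TOP10(DE3) ΔrhaA at 34 °C. Each TEVp single-site mutant (parent TEVp 0) is paired with a single-site variant of the 7-mer TEVs (canonical ENLYFQ|S). The substrate sits between flexible linkers in a Bxb1-sfGFP-TEVs-SsrA fusion, so cleavage stabilises Bxb1 and speeds flipping of a recombination array, read by NGS. The value is the raw area under the fraction-flipped curve over 0-4 h after rhamnose induction (AUC4h), with ≥20 reads per time point. It is not background-subtracted; inactive controls average about 0.047.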
# 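Also: Bxb1 expression induced with 0.2% (w/v) L-rhamnose at OD600 near 0.5, cultures sampled hourly, flipped fraction per protease–substrate barcode pair counted by paired-end Illumina sequencing.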
variant,measurement,value
MGESLFKGPRDYNPISSSICHLTNESDGHTTSLYGIGFGPFIITNKHLFRRNNGTLVVQSLHGVFKVKDTTTLQQHLVDGRDMIIIYMPKDFPPFPQKLKFREPQREERICLVTTNFQTKSMSSMVSDTSCTFPSGDGIFWKHWIQTKDGQCGSPLVSTRDGFIVGIHSASNFTNTNNYFTSVPKNFMELLTNQEAQQWVSGWRLNADSVLWGGHKVFMVKPEEPFQPVKEATQL [R87Y],area with substrate EALYFQS,0.113
same,area with substrate EELYFQS,0.0883
same,area with substrate EKLYFQS,0.0942
same,area with substrate EPLYFQS,0.0805
same,area with substrate ERLYFQS,0.0688
same,area with substrate ESLYFQS,0.074
same,area with substrate EVLYFQS,0.102
same,area with substrate EWLYFQS,0.0882
MGESLFKGPRDYNPISSSICHLTNESDGHTTSLYGIGFGPFIITNKHLFRRNNGTLVVQSLHGVFKVKDTTTLQQHLVDGRDMIIIRMMKDFPPFPQKLKFREPQREERICLVTTNFQTKSMSSMVSDTSCTFPSGDGIFWKHWIQTKDGQCGSPLVSTRDGFIVGIHSASNFTNTNNYFTSVPKNFMELLTNQEAQQWVSGWRLNADSVLWGGHKVFMVKPEEPFQPVKEATQL [P89M],area with substrate EALYFQS,0.0924
same,area with substrate ECLYFQS,0.0751
same,area with substrate EGLYFQS,0.0634
same,area with substrate EILYFQS,0.0786
same,area with substrate EKLYFQS,0.0957
same,area with substrate ELLYFQS,0.0762
same,area with substrate EMLYFQS,0.0859
same,area with substrate EPLYFQS,0.0921
same,area with substrate ESLYFQS,0.0976
same,area with substrate ETLYFQS,0.0796
same,area with substrate EVLYFQS,0.0786
MGESLFKGPRDYNPISSSICHLTNESDGHTTSLYGIGFGPFIITNKHLFRRNNGTLVVQSLHGVFKVKDTTTLQQHLVDGRDMIIIRMPRDFPPFPQKLKFREPQREERICLVTTNFQTKSMSSMVSDTSCTFPSGDGIFWKHWIQTKDGQCGSPLVSTRDGFIVGIHSASNFTNTNNYFTSVPKNFMELLTNQEAQQWVSGWRLNADSVLWGGHKVFMVKPEEPFQPVKEATQL [K90R],area with substrate EALYFQS,0.102
same,area with substrate ECLYFQS,0.0966
same,area with substrate EKLYFQS,0.102
same,area with substrate EQLYFQS,0.0954
same,area with substrate ESLYFQS,0.104
same,area with substrate EVLYFQS,0.103
MGESLFKGPRDYNPISSSICHLTNESDGHTTSLYGIGFGPFIITNKHLFRRNNGTLVVQSLHGVFKVKDTTTLQQHLVDGRDMIIIRMPKKFPPFPQKLKFREPQREERICLVTTNFQTKSMSSMVSDTSCTFPSGDGIFWKHWIQTKDGQCGSPLVSTRDGFIVGIHSASNFTNTNNYFTSVPKNFMELLTNQEAQQWVSGWRLNADSVLWGGHKVFMVKPEEPFQPVKEATQL [D91K],area with substrate EALYFQS,0.107
same,area with substrate EHLYFQS,0.0586
same,area with substrate EILYFQS,0.114
same,area with substrate EQLYFQS,0.103
same,area with substrate ERLYFQS,0.0951
same,area with substrate ESLYFQS,0.0884
MGESLFKGPRDYNPISSSICHLTNESDGHTTSLYGIGFGPFIITNKHLFRRNNGTLVVQSLHGVFKVKDTTTLQQHLVDGRDMIIIRMPKNFPPFPQKLKFREPQREERICLVTTNFQTKSMSSMVSDTSCTFPSGDGIFWKHWIQTKDGQCGSPLVSTRDGFIVGIHSASNFTNTNNYFTSVPKNFMELLTNQEAQQWVSGWRLNADSVLWGGHKVFMVKPEEPFQPVKEATQL [D91N],area with substrate EALYFQS,0.133
same,area with substrate EGLYFQS,0.139
same,area with substrate EHLYFQS,0.0915
same,area with substrate EKLYFQS,0.153
same,area with substrate EMLYFQS,0.14
same,area with substrate ESLYFQS,0.0968
same,area with substrate ETLYFQS,0.149
same,area with substrate EVLYFQS,0.226
MGESLFKGPRDYNPISSSICHLTNESDGHTTSLYGIGFGPFIITNKHLFRRNNGTLVVQSLHGVFKVKDTTTLQQHLVDGRDMIIIRMPKRFPPFPQKLKFREPQREERICLVTTNFQTKSMSSMVSDTSCTFPSGDGIFWKHWIQTKDGQCGSPLVSTRDGFIVGIHSASNFTNTNNYFTSVPKNFMELLTNQEAQQWVSGWRLNADSVLWGGHKVFMVKPEEPFQPVKEATQL [D91R],area with substrate EALYFQS,0.165
same,area with substrate EDLYFQS,0.147
same,area with substrate ELLYFQS,0.0904
same,area with substrate EMLYFQS,0.122
same,area with substrate EPLYFQS,0.126
same,area with substrate ESLYFQS,0.109
same,area with substrate EWLYFQS,0.0889
MGESLFKGPRDYNPISSSICHLTNESDGHTTSLYGIGFGPFIITNKHLFRRNNGTLVVQSLHGVFKVKDTTTLQQHLVDGRDMIIIRMPKDDPPFPQKLKFREPQREERICLVTTNFQTKSMSSMVSDTSCTFPSGDGIFWKHWIQTKDGQCGSPLVSTRDGFIVGIHSASNFTNTNNYFTSVPKNFMELLTNQEAQQWVSGWRLNADSVLWGGHKVFMVKPEEPFQPVKEATQL [F92D],area with substrate EALYFQS,0.0624
same,area with substrate ECLYFQS,0.0504
same,area with substrate EILYFQS,0.0613
same,area with substrate EKLYFQS,0.0601
same,area with substrate ELLYFQS,0.0677
same,area with substrate EPLYFQS,0.0876
same,area with substrate ERLYFQS,0.052
same,area with substrate ESLYFQS,0.0524
same,area with substrate EVLYFQS,0.0516
MGESLFKGPRDYNPISSSICHLTNESDGHTTSLYGIGFGPFIITNKHLFRRNNGTLVVQSLHGVFKVKDTTTLQQHLVDGRDMIIIRMPKDIPPFPQKLKFREPQREERICLVTTNFQTKSMSSMVSDTSCTFPSGDGIFWKHWIQTKDGQCGSPLVSTRDGFIVGIHSASNFTNTNNYFTSVPKNFMELLTNQEAQQWVSGWRLNADSVLWGGHKVFMVKPEEPFQPVKEATQL [F92I],area with substrate EALYFQS,0.108
same,area with substrate ECLYFQS,0.0699
same,area with substrate EELYFQS,0.116
same,area with substrate ELLYFQS,0.0957
same,area with substrate EQLYFQS,0.101
same,area with substrate ERLYFQS,0.0819
same,area with substrate ESLYFQS,0.105
same,area with substrate EVLYFQS,0.0946
same,area with substrate EWLYFQS,0.0906
MGESLFKGPRDYNPISSSICHLTNESDGHTTSLYGIGFGPFIITNKHLFRRNNGTLVVQSLHGVFKVKDTTTLQQHLVDGRDMIIIRMPKDFPRFPQKLKFREPQREERICLVTTNFQTKSMSSMVSDTSCTFPSGDGIFWKHWIQTKDGQCGSPLVSTRDGFIVGIHSASNFTNTNNYFTSVPKNFMELLTNQEAQQWVSGWRLNADSVLWGGHKVFMVKPEEPFQPVKEATQL [P94R],area with substrate EALYFQS,0.105
same,area with substrate EDLYFQS,0.148
same,area with substrate EELYFQS,0.121
same,area with substrate EGLYFQS,0.103
same,area with substrate EILYFQS,0.102
same,area with substrate EKLYFQS,0.145
same,area with substrate EMLYFQS,0.123
same,area with substrate EPLYFQS,0.151
same,area with substrate EQLYFQS,0.109
same,area with substrate ERLYFQS,0.134
same,area with substrate ESLYFQS,0.0841
same,area with substrate EVLYFQS,0.0961
same,area with substrate EYLYFQS,0.122
MGESLFKGPRDYNPISSSICHLTNESDGHTTSLYGIGFGPFIITNKHLFRRNNGTLVVQSLHGVFKVKDTTTLQQHLVDGRDMIIIRMPKDFPPCPQKLKFREPQREERICLVTTNFQTKSMSSMVSDTSCTFPSGDGIFWKHWIQTKDGQCGSPLVSTRDGFIVGIHSASNFTNTNNYFTSVPKNFMELLTNQEAQQWVSGWRLNADSVLWGGHKVFMVKPEEPFQPVKEATQL [F95C],area with substrate EALYFQS,0.0787
same,area with substrate ECLYFQS,0.0949
same,area with substrate EHLYFQS,0.104
same,area with substrate EKLYFQS,0.0925
same,area with substrate EWLYFQS,0.0939
MGESLFKGPRDYNPISSSICHLTNESDGHTTSLYGIGFGPFIITNKHLFRRNNGTLVVQSLHGVFKVKDTTTLQQHLVDGRDMIIIRMPKDFPPIPQKLKFREPQREERICLVTTNFQTKSMSSMVSDTSCTFPSGDGIFWKHWIQTKDGQCGSPLVSTRDGFIVGIHSASNFTNTNNYFTSVPKNFMELLTNQEAQQWVSGWRLNADSVLWGGHKVFMVKPEEPFQPVKEATQL [F95I],area with substrate EALYFQS,0.0976
same,area with substrate ECLYFQS,0.0692
same,area with substrate EFLYFQS,0.0917
same,area with substrate EGLYFQS,0.0579
same,area with substrate EHLYFQS,0.095
same,area with substrate EILYFQS,0.066
same,area with substrate EKLYFQS,0.0827
same,area with substrate ELLYFQS,0.0765
same,area with substrate EMLYFQS,0.0946
same,area with substrate EPLYFQS,0.114
same,area with substrate ERLYFQS,0.0909
same,area with substrate ESLYFQS,0.084
same,area with substrate ETLYFQS,0.0987
same,area with substrate EVLYFQS,0.0692
same,area with substrate EYLYFQS,0.0592

# From the supplement of paper PMC12217912
